Results taken from the supplement of paper PMC11417369.
± gives the standard deviation of the averaged measurements. This is one part of the list.

test system: PfAP2-G AP2 domain (GST-tagged); assay: gcPBM binding intensity (ln(normalized median fluorescence intensity)); higher = stronger DNA binding
Summary of the method: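 GST-fused DNA-binding domains of P. falciparum, expressed in E. coli, were applied at about 25 μg on average for 1 h to an Agilent 4 × 180k array of primer-extended double-stranded 36-bp intergenic genomic probes and negative controls. Binding intensity is the highest Masliner-normalised natural-log median intensity across replicate spots of either probe orientation, measured with Alexa488 anti-GST antibody and a 488 nm scan.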

Row | Sequence | gcPBM binding intensity (ln)
1 | TATTCTGGTGTAAATGCACACAGAAGAAGAAAAAAA [CACACA_site9225] | 10.1 ± 0.26
2 | TGTAGTCTGGAGAAAAGTACACAGTATCTGGTAACA [XGTACX_site2010] | 11.4 ± 0.89
3 | AGTTTTATAAAAATATGTACTTATATACACATGTAT [XGTACX_site4022] | 11.2 ± 0.67
4 | TATGGCAAAACATTCACACATATTTATATATGTGTA [CACACA_site5588] | 9.8 ± 0.099
5 | TTCTGTTGGAATATATGTACATAATAAAAAAAAATA [XGTACX_site1741] | 11.3 ± 0.74
6 | TTTTTTTTTTTTGTAATACACACCACTATATGTTAT [CACACA_site1844] | 10.1 ± 0.49
7 | ATATAATTAAAAACATGTACATATATATATATATAT [XGTACX_site2882] | 11.3 ± 0.83
8 | CATAAATGTATATAAACATGCAAGGACAGACTTTTA [TGCATGCA_site900] | 11 ± 0.57
9 | TTGATATGTACAGGCACACATAAATTTCACAAATAT [CACACA_site3999] | 11.2 ± 0.84
10 | CTTTAGTTTTTAATGTGTACTGAATTTGAATAGTAG [XGTACX_site7920] | 11.2 ± 0.72
11 | CGTATTATTTTATAAACACACAAGGGGGCATGTATA [CACACA_site6489] | 11.2 ± 0.81
12 | GAATATTAAACAAACACACACACATATATTTATATA [CACACA_site7563] | 9.92 ± 0.014
13 | AATGGATTGATAAGTGGTACACACATATATATTATA [XGTACX_site6086] | 11.4 ± 0.83
14 | TATATAATATATATGACACACATATTTATATAAATA [CACACA_site4054] | 10 ± 0.26
15 | TACATACAGATATATACACACATATATAATATATAT [CACACA_site4376] | 10 ± 0.18
16 | TACATACCTATATACACATGCATATTTACATATATT [TGCATGCA_site206] | 10.12 ± 0.021
17 | AAAATTAAATTATAAGCACACACATATATATATATA [CACACA_site9105] | 10.2 ± 0.55
18 | GTAAAAATACAAAAGGTGCTCAAACAATATAATACA | 10.04 ± 0.078
19 | GTACATTGTAAGGATGGAAAAGCTAAACATTATAAT [XGTACX_negctrl_site339] | 10.8 ± 0.3
20 | ATATTTTTAACCAAGGACACAATTCTTGTATTGTTA [CACACA_negctrl_site1326] | 10.6 ± 0.4
21 | AAAAGATTAAGTAGAATAATGTTCTTTCCCAACATA [GTGCAC_negctrl_site223] | 9.72 ± 0.028
22 | ATACCAAATGAATAATGTACATACGAACATACATAT [XGTACX_site1301] | 11.1 ± 0.64
23 | AAGGGTTATAAAAATTGTACTTTTTTTATTTTTTTT [XGTACX_site1313] | 11.4 ± 0.76

Row | Sequence | gcPBM binding intensity (ln)
24 | ATATATTTATATAGGTGTACATATTTTGCTATTCAA [XGTACX_site5199] | 11.6 ± 0.77
25 | TAAGTCGTTATAAGCACACACATAAATAAAAATAAA [CACACA_site1574] | 10.3 ± 0.41
26 | CAACCTCATAATATTTAACACACAAAATTATATGTA [CACACA_site8496] | 9.68 ± 0.13
27 | TTATCTTAATTGTGATTATAAAGATATTCTTTCTAT [GTGCAC_negctrl_site410] | 9.51 ± 0.014
28 | CATTTAGAATAAGGCACACATAAAGAACACTTTCCA [CACACA_site130] | 10.21 ± 0.049
29 | AAATAAGAAAATCATAGTACATAGGAATAGAAGAAC [XGTACX_site3135] | 10.8 ± 0.42
30 | AGTATACGCAAACACACACACACAAAAAAAAAAAAA [CACACA_site426] | 10.1 ± 0.43
31 | TATTATATTTATATTTGTACTTAAAATATTATACAC [XGTACX_site2881] | 11.3 ± 0.9
32 | TACGTTCTGATATATACACACCTGGTATTAATTATG [CACACA_site7113] | 10.19 ± 0.099
33 | AGAAAAATTATATATACACACTTATATTTATATATA [CACACA_site5555] | 9.79 ± 0.071
34 | TTTTTTTTTTTAAATTGTACTTATTTTATATTATAT [XGTACX_site1077] | 11.4 ± 0.9
35 | AATTTCCCATATTACACACATACTATGATATATAAA [CACACA_site3834] | 10.02 ± 0.035
36 | CAATAAACCATTTTTTGTACATAAAAATAGGTATTG [XGTACX_site1892] | 11 ± 0.59
37 | TAAATATGTATAAATTGTACAAAATATATGAATAGT [XGTACX_site5659] | 10.8 ± 0.37
38 | AATGTCATGATACATACACACACATACACATACACA [CACACA_site8665] | 10.1 ± 0.11
39 | ATATCTTATTTTCCTTGTACTTATTTCATAATTACA [XGTACX_site3894] | 11.4 ± 0.81
40 | TATTAAATATTGTAATGTACATATATAATATAATAT [XGTACX_site1809] | 11.1 ± 0.61
41 | AAAGAGAAATTTAAATGTACATTTGTTCTAAGTGTA [XGTACX_site3602] | 10.9 ± 0.49
42 | AATTATGAAAAATCAAGTACAAACAAAATCATAATT [XGTACX_site5665] | 11.1 ± 0.73
43 | AAAAGATATATTATATGTACTAATTATATGATAAAT [XGTACX_site4192] | 11 ± 0.63
44 | ATATAATGTTTCACATGTACAAACAACACAAAAAAA [XGTACX_site1899] | 10.9 ± 0.54
45 | CATACACCCATACATACACACATACATATATATATA [CACACA_site8591] | 10.2 ± 0.11
46 | GTTCTAAATATTATTGCATGTTGCACGTTTCTCTGT [TGCATGCA_site159] | 9.995 ± 0.007

Row | Sequence | gcPBM binding intensity (ln)
47 | GTGATAATTGCTTGGTGTACCCACATATATATATAT [XGTACX_site1636] | 11.6 ± 0.98
48 | TTAAAAAAAGAAAAAAAAAAAAAAAAAAAAAAACAT [CACACA_negctrl_site475] | 9.705 ± 0.064
49 | TATAAAAATATTTCTACACACATTAATATTTATATA [CACACA_site6661] | 9.835 ± 0.092
50 | TATTATATTCTGCTTACACACATATATATATATATA [CACACA_site3060] | 10.4 ± 0.57
51 | TTTTTAAATAATTGAAGTACACATTTCTCTAAGTTG [XGTACX_site2846] | 11.6 ± 1
52 | AGTAAAAGAAAGCACACACACATGTATATAGGTATG [CACACA_site7759] | 10.21 ± 0.014
53 | TAAAACATAAGAGACACACACACATATATATATATA [CACACA_site3643] | 10.3 ± 0.67
54 | ATATTCTTTTTATGTGGTACTAATTTTTTTTTTTTA [XGTACX_site3791] | 11.2 ± 0.73
55 | TTTTTAAAACATCACTGTACCCGTTATGGTGAACAT [XGTACX_site3483] | 11.7 ± 1.2
56 | AAACATATAAACATATGTACATATAAACATATATAC [XGTACX_site5026] | 11 ± 0.46
57 | CATGTATTTTATATTACACACTAATATTATAGATAT [CACACA_site6819] | 10.01 ± 0.021
58 | TTTTTTTTTTTGTTTAAACACACGAGCTTTCTTCTT [CACACA_site4085] | 9.75 ± 0.042
59 | TAAAAATTTTAATAAACACACAATGAGATATTGAAT [CACACA_site5704] | 9.66 ± 0.36
60 | AGCAAATCAGATAGTAGTACATTTAAATTAGACTTT [XGTACX_site4172] | 11.3 ± 0.81
61 | AGCATATTATCATATTGTACATATTATAATATATAT [XGTACX_site3907] | 10.9 ± 0.69
62 | ATATGTTTTGTTTACGTGCACTGCTTTGTTTATATA [GTGCAC_site9622] | 10.4 ± 0.17
63 | ATTTCTCAATCTTAATGTACAAAAAAAAGGAAAAAG [XGTACX_site1210] | 10.9 ± 0.54
64 | CAAAATAAAAATAACACACACATTTATATATATACA [CACACA_site1190] | 9.86 ± 0.19
65 | ATGAAATATCGGAACGCACACATAAATATATTTATA [CACACA_site2670] | 10.2 ± 0.23
66 | TAGCTTATTAATATCATACACACATAGATATATTTA [CACACA_site3105] | 9.63 ± 0.25
67 | CAATTTGGGGTGTACACACACCTTATTTAAATTAAA [CACACA_site6663] | 11.6 ± 0.98
68 | TTGAACTCTCTTACGCGTACGTGTTATTATGAAAAT [XGTACX_site6265] | 11.3 ± 0.7
69 | AACACAGATAAATTAACACACACACCCATATATATA [CACACA_site9310] | 9.99 ± 0.26

Row | Sequence | gcPBM binding intensity (ln)
70 | CACATATAGTTATATGCACACATCTTACACATCTAT [CACACA_site5937] | 10.2 ± 0.11
71 | TATATATATATATGTGCATGTAATGATTCAGCATCT [TGCATGCA_site803] | 9.96 ± 0.2
72 | TTTTATAAATTATAATTCTATTATCTGTTCTTTTTA [TGCATGCA_negctrl_site487] | 9.52 ± 0.3
73 | CATACATACATACATACACACATACAGATATATATA [CACACA_site4890] | 10.6 ± 0.38
74 | TCCTTATTACTTTTTTAAGTCGTAATGAAAGAAAAA [CACACA_negctrl_site1497] | 10 ± 0.27
75 | ATCTTAACTCTATGCACACATAAAAGTATATAAATA [CACACA_site2256] | 10.2 ± 0.33
76 | TTACATAATTTCTGCTGTACCAATTTTGAGAAGTTG [XGTACX_site4023] | 11.2 ± 0.71
77 | AAAAGGAATATAATCATTCAAAAATATAATATATAT [GTGCAC_negctrl_site551] | 9.48 ± 0.085
78 | ATGTAAATATATATATGTACTAATTAGTAGTTTACG [XGTACX_site6271] | 11.1 ± 0.74
79 | ATCATGTTATATACATGTACATATATATATATATAA [XGTACX_site609] | 11 ± 0.52
80 | ATCATCCAAGATCTTACACACATATTAAATAAATAA [CACACA_site1473] | 10 ± 0.13
81 | TTTTATTTTTTTAAATGTACACATATTAATGTAAGG [XGTACX_site319] | 11.5 ± 1.1
82 | TCTTCCCAAATAAAGTGTACATAAATACGAATAATA [XGTACX_site4363] | 11.4 ± 0.74
83 | AAAATTAAAATATATACACACATATATATATTAAAT [CACACA_site4419] | 9.735 ± 0.021
84 | ATCAAAGATAAATTTACACACATATATATATATATA [CACACA_site2969] | 10.1 ± 0.4
85 | AAGATATTTGTATAATGTACAAAACTATATAAAACT [XGTACX_site1433] | 10.7 ± 0.26
86 | TAATGTATATGTAAATGTACATGTATATTATTTAAA [XGTACX_site1840] | 11 ± 0.58
87 | AACAATTATTTATCTACACACTTTTATGTTATTTAC [CACACA_site9] | 9.98 ± 0.16
88 | TAAAAAATATAAATGACACACACTTAAAAACAAAGA [CACACA_site671] | 10.2 ± 0.18
89 | TATAAATTAATGACATGTACATAAAAGTATAGATGT [XGTACX_site6534] | 11.3 ± 0.71
